Biological target: T1, integrin α5β1 (human, UniProt P08648 42-1049; P05556)
T1 construct: whole, on cells
Assay: flow cytometry on human tumor cell panel (FIG. 1)

T1 sequence (P08648 42-1049, chain 1 of 2): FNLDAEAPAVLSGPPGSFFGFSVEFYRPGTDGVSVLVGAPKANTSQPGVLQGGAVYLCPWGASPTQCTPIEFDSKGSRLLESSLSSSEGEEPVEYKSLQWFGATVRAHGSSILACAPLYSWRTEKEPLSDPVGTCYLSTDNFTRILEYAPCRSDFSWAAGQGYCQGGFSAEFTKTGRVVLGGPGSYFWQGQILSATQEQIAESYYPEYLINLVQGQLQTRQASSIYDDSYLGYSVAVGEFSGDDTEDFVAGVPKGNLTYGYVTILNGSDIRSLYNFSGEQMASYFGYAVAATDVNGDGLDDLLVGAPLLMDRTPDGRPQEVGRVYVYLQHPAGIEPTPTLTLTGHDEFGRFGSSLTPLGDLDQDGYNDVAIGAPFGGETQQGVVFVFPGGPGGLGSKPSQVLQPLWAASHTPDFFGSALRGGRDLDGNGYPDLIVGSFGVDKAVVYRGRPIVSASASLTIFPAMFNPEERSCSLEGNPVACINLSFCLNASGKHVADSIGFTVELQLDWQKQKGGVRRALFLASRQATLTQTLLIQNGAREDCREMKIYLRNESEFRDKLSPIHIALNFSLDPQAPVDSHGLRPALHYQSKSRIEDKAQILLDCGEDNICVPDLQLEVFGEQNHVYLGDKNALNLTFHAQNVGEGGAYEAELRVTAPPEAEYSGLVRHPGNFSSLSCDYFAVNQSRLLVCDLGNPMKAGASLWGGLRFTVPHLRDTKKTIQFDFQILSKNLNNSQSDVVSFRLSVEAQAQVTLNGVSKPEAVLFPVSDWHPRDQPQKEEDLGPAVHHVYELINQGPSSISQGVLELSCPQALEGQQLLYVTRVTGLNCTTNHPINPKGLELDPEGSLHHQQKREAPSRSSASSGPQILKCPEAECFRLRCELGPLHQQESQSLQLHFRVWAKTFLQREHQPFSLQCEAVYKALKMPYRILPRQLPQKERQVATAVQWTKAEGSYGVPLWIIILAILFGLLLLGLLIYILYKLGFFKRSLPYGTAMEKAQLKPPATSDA
T1 sequence (P05556 21-798, chain 2 of 2, further chain): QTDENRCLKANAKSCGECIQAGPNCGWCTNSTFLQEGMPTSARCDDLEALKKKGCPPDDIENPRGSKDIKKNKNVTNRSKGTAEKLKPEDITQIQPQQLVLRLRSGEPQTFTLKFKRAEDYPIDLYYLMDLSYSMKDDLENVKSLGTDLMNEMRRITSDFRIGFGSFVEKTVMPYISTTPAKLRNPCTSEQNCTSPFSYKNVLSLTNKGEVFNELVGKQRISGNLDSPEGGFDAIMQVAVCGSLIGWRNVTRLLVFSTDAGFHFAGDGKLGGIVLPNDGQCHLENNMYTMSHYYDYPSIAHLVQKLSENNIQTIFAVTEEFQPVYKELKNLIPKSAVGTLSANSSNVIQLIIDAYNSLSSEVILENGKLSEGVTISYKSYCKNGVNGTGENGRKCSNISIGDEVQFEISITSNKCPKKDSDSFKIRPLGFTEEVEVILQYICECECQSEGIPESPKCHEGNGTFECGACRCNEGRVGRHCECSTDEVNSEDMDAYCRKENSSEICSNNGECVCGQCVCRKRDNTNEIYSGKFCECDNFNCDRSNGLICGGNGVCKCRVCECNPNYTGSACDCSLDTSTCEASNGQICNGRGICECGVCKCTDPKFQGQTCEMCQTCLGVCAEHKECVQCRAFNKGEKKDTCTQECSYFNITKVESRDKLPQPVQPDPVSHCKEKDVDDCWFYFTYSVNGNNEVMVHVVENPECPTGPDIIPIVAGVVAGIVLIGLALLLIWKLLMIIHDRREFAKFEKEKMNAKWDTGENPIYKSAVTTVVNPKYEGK

B1: scFv antibody Bc-15 (scFv)
scFv: MAQVQLVQSGAEVKEPGSSVKVSCKASGGTFSSYAIYWVRQAPGQGLEWMGWINPDSGDTNSAQQFQGRVTMTRDTSISTAYMELSRLRSDDTAMYYCARPPRGDGPDYWGQGTLVTVSSGGGGGS[letters of about 100 residues not shown]RGLGGLVDYKDDDDK
notes: Human scFv from a cancer patient phage library, with an RGD motif in CDR-H3; FITC-labelled in the internalization experiment; also called scFv Bc-15
Q: Does B1 bind?
A: no binding

From patent US20090117096A1 (Scripps Research, published 2009)
